# Source: ChEMBL document CHEMBL4888484, “Replenishing the malaria drug discovery pipeline: Screening and hit evaluation of the MMV Hit Generation Library 1 (HGL1) against asexual blood stage Plasmodium falciparum ,using a nano luciferase reporter read-out” (2022)
# The campaign covered roughly 150,000 compounds. About 540 (0.36%) showed an effect of 50% or more. This is one part of the list.
# Test system: Plasmodium falciparum
# Assay: Primary screen in NF54 nanoGlo assay, in single point, at 2uM, 72h; a lower Z score goes with more inhibition
# Type: functional, Erythrocyte
# Details: timepoint 72 hour
SMILES,% Inhibition [%],Z score
COc1ccc(CCNC(=O)CN2CC[C@](O)(C3CC3)[C@@H](C)C2)cc1,-4,0.56
CCN(C(=O)c1cc(COC(C)(C)C)on1)c1ccccc1Cl,7,-0.82
CC(C)(O)C1CN(C(=O)N[C@H](c2ccccc2)C(F)F)C1,-18,1.91
C=CCCCN(C)C(=O)c1cc(S(N)(=O)=O)cc(Cl)c1F,37,-5.75
COc1ccc(CCC(=O)Nc2ncc(Cc3ccc(C#N)cc3)s2)cc1,30,-3.93
O=C(Nc1ccc(O)cc1F)c1n[nH]c2c1CCC2,0,-0.02
COc1ccc(OCCN2CC(=O)N(c3ccc(C(C)C)cc3)[C@@H]3CS(=O)(=O)C[C@@H]32)cc1,-19,2.42
N#Cc1ncn(-c2ccc(Oc3ccccc3)cc2)c1N,-9,1.24
CN(C)c1ncccc1CNCC(C)(C)CN1CCOCC1,-17,2.24
COCCc1nsc(N2C(C)CCC2C)n1 (stereo not given),5,-0.75
CC(C)Cc1nc(N2CCN(C(=O)c3ccc(Cl)c(Cl)c3)CC2)c2c(-c3ccc4ccccc4c3)noc2n1,11,-1.06
Cc1cccc(CNC(=O)c2sc(Nc3ccc(C)cc3C)nc2C)c1,35,-3.95
CCn1ncc(C(=O)Nc2nc(-c3ccc(C)cc3)c(C)s2)c1C(F)(F)F,-16,1.78
FC1(F)CC[C@H](Cc2nc(Cc3ccc4cn[nH]c4c3)no2)C1,-11,1.4
CC(=O)NC[C@H]1CCN(C(=O)c2ccoc2C(C)C)C1,-12,2.27
O=C(CN1CCCCCC1)N1CCc2[nH]nc(C3CC3)c2C1,-3,0.41
c1ccc(CNc2nccc3c2c2ncnc(-c4ccccc4)c2n3Cc2ccccc2)cc1,-9,1.78
CC(C)c1nnc(CN[C@@H](C)c2ccc(Cl)s2)n1C,-9,1.4
C#CCCC1(CCC(=O)N2CCN(c3ncc(F)cn3)CC2)N=N1,-14,1.74
COC(=O)C1C2CCC(C2)C1NC(=O)c1cccn1C (stereo not given),-12,1.6
CCC(=O)N(CCCOC)Cc1c(-c2cccc(C)c2)noc1N1CCCC1,1,-0.18
O=C(NCC1CCCO1)N1CCC(c2noc(-c3ccccc3)n2)C1 (stereo not given),-2,0.41

SMILES,% Inhibition [%],Z score
Cc1ccc2ncc(CN3CC[C@H](c4cnccn4)C3)cc2c1,-19,2.5
CC(C)(O)c1cn(C2CN(C(=O)c3ccc4ccccc4c3)C2)nn1,0,0.05
CC(C)CCNC(=O)NCc1nc([C@H]2CC(=O)N(Cc3ccc(F)cc3)C2)no1,-10,1.13
O=C(Nc1ccc(CCN2CCCC2)cc1)c1cccnc1C1CC1,-16,2.52
O=C(Cn1nc2n(c1=O)C(=O)N(c1ccccc1)C2)Nc1cc(F)ccc1F,-6,0.82
Cc1ccc(S(=O)(=O)Nc2ccccc2-c2ccc3cc(C)ccc3n2)cc1,5,-0.6
CCCCn1c(N)c(N(Cc2ccccc2OC)C(=O)c2ccc(F)cc2)c(=O)[nH]c1=O,3,-0.31
Cc1nc(-c2ncc(C(=O)N(C)[C@@H](C)c3ccon3)c(O)n2)cs1,9,-1.24
CC1CCN(c2nc(N3CCN(C)CC3)nc3c2CN(C(=O)c2cccc(F)c2)CC3)CC1,0,0.03
Cc1ncccc1C(=O)N1CCC(Cc2ncc(C)n2Cc2ccc(F)cc2)CC1,-11,1.65
CC(C)c1nc2ccc(C(=O)N[C@@H](C)c3ccc4c(c3)OCCO4)cc2o1,-19,1.75
CCCOc1ccc(Br)cc1C#N,-20,1.77
CC1CCCC(C(=O)Nc2ccc(OCC(=O)N(C)C)cc2F)C1 (stereo not given),-13,1.72
O=C(O)[C@@H]1COCCN1C(=O)c1nc(-c2ccccc2)n(-c2ccccc2)n1,-3,0.32
Cc1nc(C(N)=O)n(CC(=O)Nc2ccc(Cl)cc2)n1,-6,0.62
CC1CN(C(=O)c2ccc3c(c2)CCC3)CC(C)O1 (stereo not given),-3,0.4
CC(C)(CNC(=O)C1C2CCCC21)CC1CCOCC1 (stereo not given),-6,0.8
C[C@H]1CCCN(Cc2ccccc2CNCc2ncc[nH]2)C1,1,-0.09
Cc1ccc(CN2CCC(N3CC[C@@H]4CCCC[C@H]4C3)CCC2=O)cc1 (stereo not given in full),-10,1.28
COc1ccc(-c2noc(Cc3nnc(-c4cccc(Br)c4)o3)n2)cc1,-12,1.87
Cc1cc(NC(=O)N2CCN(c3ncc[nH]c3=O)CC2)c(Cl)cc1F,-1,0.17
O=C(NCc1ccc2c(c1)OCO2)c1cc2cn(C3CCCC3)cc2s1,2,-0.32

SMILES,% Inhibition [%],Z score
c1ccc(-n2ncc3c(NC4CCCC4)nnnc32)cc1,-12,1.82
CCn1ccc2ccc(CN(C)C[C@H]3CCOC3)cc21,0,-0.09
Cc1c(C(=O)O)sc2ncnc(Nc3ccc(N(C)C)cc3)c12,-11,1.21
CCCC[C@H](CC)C(=O)Nc1ccccc1C(N)=O,-8,1.15
CC1CNCCN1C(=O)C1Cc2cccc(F)c2O1 (stereo not given),-16,1.93
Cc1noc(C)c1CN1C(=O)[C@@H]2CC[C@H]1CN(C(=O)[C@H]1CC[C@@H](O)CC1)C2,7,-0.9
CCc1nnc(CN(CC)Cc2ccc([C@@H]3CCCO3)s2)o1,-12,1.38
O=C(CCc1cc2ccccc2o1)Nc1nnc[nH]1,-10,1.54
Cc1nnc2cc(N3CCN(S(=O)(=O)c4ccc(Br)cc4)CC3)cnn12,-1,0.12
COCCCNC(=O)CN(C)c1c(Cl)cccc1C#N,-15,2.86
CCS(=O)(=O)N1CCC[C@@]2(CCC(=O)N(Cc3ccncc3)C2)C1,-1,0.27
O=S1(=O)C[C@H](O)[C@@H](n2ccnc2-c2ccccc2Cn2cccn2)C1,-10,1.62
Cc1ccc(C2=NC3(CCN(CC(=O)Nc4ccc(Br)cc4F)CC3)NC2=O)cc1C,-11,1.55
CCOc1cc(N(C)[C@@H](C)c2cnn(C)c2)ncn1,3,-0.41
COc1cnc([C@@H]2CCCN2Cc2cn(C(C)(C)C)nn2)[nH]c1=O,25,-3.18
CC(C)(C)CC(C)(C)NS(=O)(=O)Cc1ccccc1,-8,1.57
O[C@H]1Cc2ccccc2[C@H]1Nc1cc(-n2ccnc2)ncn1,-1,0.2
COC1CCN(S(=O)(=O)NCc2ccc3sccc3c2)CC1,-2,0.28
COc1ccccc1CNC(=O)c1ccc(-n2cncn2)nn1,-22,2.78
CCC(C)C(=O)N1CCCC(c2nc(-c3ncc[nH]3)no2)C1 (stereo not given),-15,1.33
CC(=O)c1nn(-c2ccc(OC(F)(F)F)cc2)nc1Nc1ccc(Cl)cc1,-11,1.3
CCn1cc(C(=O)NC(C)(C)Cc2ccc(Cl)cc2Cl)nn1,-12,1.89

SMILES,% Inhibition [%],Z score
COc1ccc(CN2CC[C@H](CNC(=O)c3ccc[nH]3)C2)cc1O,-5,0.93
O=C(Cn1cccn1)NCc1cccnc1-n1cnc2ccccc21,15,-1.96
O=C(NC[C@H]1CCCO1)/C(=C\c1cccc(Oc2ccccc2)c1)NC(=O)c1ccc(Cl)cc1,-4,0.55
CCC1(CCC(=O)NC(Cc2ccccc2)c2ccccc2)CCC(=O)N1 (stereo not given),-3,0.5
CS(=O)(=O)CCn1cnc(-c2ccccc2)c1CCc1ccccc1,-2,0.4
CC1CCCCC1OCCNCCn1cccn1 (stereo not given),-5,0.7
CC[C@H](NC(=O)CCn1nccc1C)c1nc(C)no1,-6,1.18
COc1cc2c(cc1-c1cn([C@H]3CCNC3=O)nn1)OCO2,-19,1.66
CS(=O)(=O)CC(=O)N(Cc1ccncc1)C1CC1,-12,1.2
CCc1n[nH]c(-c2nc(-c3ccccn3)nn2C2CCN(C)CC2)c1C,-11,1.68
CCCCCNC(=O)CCn1ccnc1,3,-0.29
Cc1cc(C(=O)N2CCN(c3ccccc3F)CC2)nc2ccnn12,3,-0.55
O=C(Nc1ccc(CCN2CCCC2)cc1)c1ncccc1F,-14,2.33
CC(C)(C)c1nccc(NC2CC3CCC2O3)n1 (stereo not given),-13,2.13
c1cc(CN[C@H]2CCOC3(CCOCC3)C2)cc(N2CCCC2)c1,-11,1.53
CC(C)c1cc(C(=O)N2C[C@@H]3CC[C@H]2CN(CCCc2ccccc2)C3)[nH]n1,-10,0.98
C[C@@H](CN1CCCC1=O)NC(=O)c1cnc2c(c1)ncn2C,-4,0.53
Cc1ccc(Oc2cccc(C(=O)Nc3cnc(-n4nc(C)c(C)c4C)nc3)c2)nn1,1,-0.13
O=C(CN1CCCc2nc(-c3ccncc3)ncc2C1=O)NCc1ccco1,-6,1.02
